# Results: PubChem BioAssay AID463173 (ICCB-Longwood Screening Facility, Harvard Medical School, 2010)
# About 4,300 (8.3%) of roughly 52,000 compounds were called active. Rule as the data show it: active = survival mostly below about 52% (no sharp cut-off); inactive = mostly above about 56%. The list shows a part of the results.
# Tested on: DeltatarO mutant
# Assay: growth inhibition of S. aureus wild type versus tarO mutant, primary screen, teichoic acid synthesis inhibitors, RN4220, OD600 (AID 463173)
# Settings: OD600, 18 h, stronger effect = lower value, screened at 18.75 µg/mL (by protocol)
row,Compound,survival
1,Cc1cccc2nc(-c3ccc(N(C)C)cc3)c(Nc3ccc4c(c3)OCO4)n12,inactive: 102%
2,COc1ccc(CCNS(=O)(=O)c2cc(-c3cc(C)no3)ccc2OC)cc1OC,inactive: 83%
3,CC(C)c1ccc(-c2noc(SCC(=O)N3CCN(c4ccc(F)cc4)CC3)n2)cc1,inactive: 73%
4,CCOc1ccc(OCc2ccc(C(=O)Nc3cc(OC)c(OC)c(OC)c3)o2)cc1,active: 54%
5,Cc1ccc(C)c(NC(=O)N(C)CCc2c(C)nn(C)c2C)c1,inactive: 84%
6,O=C(CCc1ccccc1)N(Cc1cccnc1)c1nc2c(F)cc(F)cc2s1,inactive: 119%
7,Cc1ccc(C)c(Nc2nn3c(=O)c4ccc(C(=O)NCCC5=CCCCC5)cc4nc3s2)c1,inactive: 90%
8,Cc1ccc(N2CC(C(=O)NCCS(=O)(=O)N3CCN(c4ccccc4)CC3)CC2=O)cc1C (configuration not stated),inactive: 83%
9,CCOc1ccc(-c2nc(CNC(=O)NC3CCCCC3)c(C)o2)cc1,inactive: 90%
10,CCNc1nc(N)nc(Oc2ccc(OCC(=O)OC)nn2)n1,inactive: 103%
11,CCN(CC)CCNc1ncnc2c1cnn2-c1cc(Cl)ccc1C,inactive: 77%
12,Cc1ccc(C(=O)Nc2nc3nc(C)cc(=O)n3[nH]2)cc1,inactive: 91%
13,COCCCNC(=O)c1[nH]c2ccccc2c1Sc1ccc(C)cc1,inactive: 69%
14,Cc1ccccc1NC(=O)Cn1c(=O)n(CCCCCC(=O)NCc2ccccc2Cl)c(=O)c2sccc21,inactive: 103%
15,Brc1ccc(-c2csc(NN=C3CCCC3)n2)cc1,inactive: 102%
16,CCS(=O)(=O)N1CCc2cc(C(=O)NCc3ccc(Cl)cc3)ccc21,inactive: 92%
17,COC(=O)c1c(NC(=O)Cc2cccs2)sc2c1CCCC2,inactive: 119%
18,O=C1c2ccccc2C(=O)N1CC(O)CN1CCOCC1 (configuration not stated),inactive: 81%
19,COc1cc(C2CC(=O)c3c([nH]c(C(=O)OCc4ccc(C)cc4)c3C)C2)cc(OC)c1OC (configuration not stated),inactive: 83%

row,Compound,survival
1,COc1ccccc1-c1nnc(C2CCN(C(=O)c3cccc(Cl)c3)CC2)o1,inactive: 88%
2,Cc1cccc(C(c2sc3nc(-c4ccco4)nn3c2O)N2CCN(Cc3ccccc3)CC2)c1 (configuration not stated),inactive: 94%
3,CCOC(=O)c1ccccc1NC(=O)Cn1c(=O)n(CCC(=O)N2CCc3ccccc3C2)c(=O)c2ccccc21,inactive: 87%
4,COc1cc(NC(=O)c2cc(Cl)ccc2Cl)ccc1NC(=O)c1cc2ccccc2o1,inactive: 55%
5,CCOC(=O)c1c(C)oc2ncnc(N3CCN(c4ccc(C)cc4C)CC3)c12,inactive: 95%
6,O=C(NCCc1ccccc1)c1cc(-c2ccc(Br)cc2)on1,inactive: 64%
7,O=C(Nc1ccc(Br)cc1F)c1cc(S(=O)(=O)NC2CCCC2)ccc1F,inactive: 119%
8,O=C(NC1CCCCC1)C1CCCN1C(=O)NCc1ccccc1 (configuration not stated),inactive: 62%
9,Cc1sc2ncn(CC(=O)Nc3ccc(F)cc3Cl)c(=O)c2c1S(=O)(=O)N1CCN(c2ncccn2)CC1,inactive: 66%
10,CCn1c(CNC(=O)c2ccccc2F)nnc1SCC(=O)NC1CCCCC1C (configuration not stated),inactive: 71%
11,CCOC(=O)c1ccccc1NC(=O)Cn1c(=O)n(CCC(=O)NCc2ccccc2OC)c(=O)c2ccccc21,inactive: 85%
12,Cc1cc(C)n(C(=O)c2ccoc2C)n1,inactive: 96%
13,COc1ccc2c(c1)C(C)=CC(C)(C)N2C(=O)Cn1cnc2c(cnn2-c2ccccc2)c1=O,inactive: 74%
14,CC(Sc1nnc(-c2ccccc2Br)o1)C(=O)Nc1cccc(Cl)c1 (configuration not stated),active: 34%
15,CCCOc1ccc(C(=O)Nc2ccc3oc(-c4ccc5ccccc5c4)nc3c2)cc1,inactive: 129%
16,COc1ccc(NC(=O)c2ccc3c(SCC(=O)O)c4c(nc3c2)CCCC4)cc1OC,inactive: 129%
17,CC(=O)c1cccc(NC(=O)CSc2nnc3ccc(-c4ccc(F)cc4)nn23)c1,inactive: 80%
18,Cc1cccn2c(=O)cc(CSc3nnc(NC(=O)COc4ccc(F)cc4)s3)nc12,active: -2%
19,CCOC(=O)c1c(S(=O)(=O)NCC(=O)N2CCN(c3cccc(Cl)c3)CC2)c(C)n(C)c1C,inactive: 86%

row,Compound,survival
1,COc1ccc(-c2nc3scc(CCNS(=O)(=O)c4c(C)noc4C)n3n2)cc1OC,inactive: 119%
2,COc1cccc(-c2nnc3n(Cc4ccc(C)cc4)c(=O)c4ccccc4n23)c1O,inactive: 83%
3,CCN1CCN(c2csc3ccc(F)cc3c2=O)CC1,inactive: 94%
4,CCCCN(Cc1cccs1)S(=O)(=O)c1cc(-c2cc(C)no2)ccc1C,inactive: 70%
5,COc1ccc(C)cc1Nc1nc2c(S(=O)(=O)c3cc(C)ccc3C)nnn2c2ccsc12,inactive: 86%
6,Cc1ccc(CN2CCC(CNC(=O)Nc3ccccc3F)CC2)cc1,inactive: 113%
7,COc1cc2c(cc1NC(=O)COc1cc(C)cc(C)c1)oc1ccccc12,inactive: 59%
8,COCCNc1nc2c(S(=O)(=O)c3ccccc3)nnn2c2ccc(Cl)cc12,inactive: 74%
9,O=C(COc1ccc(Cl)cc1)NCCc1csc(-c2ccc(C(F)(F)F)cc2)n1,inactive: 95%
10,COc1ccc(Nc2ncnc3scc(-c4ccc(F)cc4)c23)cc1,inactive: 92%
11,COc1ccc(Cn2c(SCc3ccc(C(=O)NC4CCCCC4)cc3)nc3cccnc32)cc1,inactive: 106%
12,CC(=O)Nc1ccc2nc(SCCOc3ccc(C)cc3)sc2c1,inactive: 94%
13,COc1ccc(NC(=O)c2sc3nc(C)c(C(=O)Nc4ccc(C)cc4C)c(-c4sccc4C)c3c2N)cc1,inactive: 91%
14,COc1ccccc1-c1cc(C(F)(F)F)nc(S(=O)(=O)CCCC(=O)Nc2ccccc2F)n1,inactive: 70%
15,CCc1c(CN2CCN(c3ccc(F)cc3)CC2)csc1C,active: 38%
16,CN1CCN(C(=O)C2C3C=CC(C3)C2C(=O)O)CC1 (configuration not stated),inactive: 96%
17,O=C(Cn1nnc(-c2ccc(C(F)(F)F)cc2)n1)NCCc1ccccc1,inactive: 84%
18,Cc1cc(C)cc(NS(=O)(=O)c2cc3[nH]c(=O)c(=O)[nH]c3cc2C)c1,inactive: 87%
19,CC1Cc2cc(S(=O)(=O)CCC(=O)Nc3cccc(F)c3)ccc2N1C(=O)C1CC1 (configuration not stated),inactive: 96%
